{
  "source": "the supplement of paper PMC8728848",
  "binders": {"B1": {"name": "Cohesin-marm-DC-ASGPR-CRD (protein)", "chain": "LDITSHHHHHHDDLDAVRIKVDTVNAKPGDTVRIPVRFSGIPSKGIANCDFVYSYDPNVLEIIEIEPGDIIVDPNPDKSFDTAVYPDRKIIVFLFAEDSGTGAYAITKDGVFATIVAKVKEGAPNGLSVIKFVEVGGFANNDLVEQKTQFFDGGVNVGDTTEPATPTTPVTTPTTTDDLDAASCPINWVEHQGSCYWFSRSGKTWPEAERYCQLENTHLVVINSREEQNFVQAHLGSAYTWMGLSDPEGVWKWVDGTDYSSGFQNWKPGQPDDWQGHGLGGGEDCAHFHPDGRWNDDVCQRSYHWVCEAGLTQASQDSH"}},
  "experiment_in_all_cases": "glycan array binding signal (z-score within array); higher = stronger binding",
  "settings_in_all_cases": "glycan notation: IUPAC condensed, linker removed",
  "key": {"[1]": {"molecular_target": "GlcNAc(b1-3)Gal(b1-4)GlcNAc(b1-3)Gal(b1-4)GlcNAc(b1-2)Man(a1-3)[GlcNAc(b1-3)Gal(b1-4)GlcNAc(b1-3)Gal(b1-4)GlcNAc(b1-2)Man(a1-6)]Man(b1-4)GlcNAc(b1-4)[Fuc(a1-6)]GlcNAc", "procedure,_shortened": "(§1)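 From the Consortium for Functional Glycomics database, 3228 arrays were curated, keeping only those whose protein sequence was available. Binding is given as a within-array Z-score averaged across arrays sharing a protein sequence and across linkers. Negative Z-scores can be read as non-binding.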"}, "[2]": {"molecular_target": "GlcNAc(b1-3)Gal(b1-4)GlcNAc(b1-3)Gal(b1-4)GlcNAc(b1-2)[GlcNAc(b1-3)Gal(b1-4)GlcNAc(b1-3)Gal(b1-4)GlcNAc(b1-6)]Man(a1-6)[GlcNAc(b1-3)Gal(b1-4)GlcNAc(b1-3)Gal(b1-4)GlcNAc(b1-2)Man(a1-3)]Man(b1-4)GlcNAc(b1-4)[Fuc(a1-6)]GlcNAc", "procedure,_shortened": "as §1"}, "[3]": {"molecular_target": "GlcNAc(b1-3)Gal(b1-4)GlcNAc(b1-3)Gal(b1-4)GlcNAc(b1-3)Gal(b1-4)GlcNAc(b1-2)Man(a1-3)[GlcNAc(b1-3)Gal(b1-4)GlcNAc(b1-3)Gal(b1-4)GlcNAc(b1-3)Gal(b1-4)GlcNAc(b1-2)Man(a1-6)]Man(b1-4)GlcNAc(b1-4)GlcNAc", "procedure,_shortened": "as §1"}, "[4]": {"molecular_target": "GlcNAc(b1-3)Gal(b1-4)GlcNAc(b1-3)Gal(b1-4)GlcNAc(b1-3)Gal(b1-4)GlcNAc(b1-2)Man(a1-3)[GlcNAc(b1-3)Gal(b1-4)GlcNAc(b1-3)Gal(b1-4)GlcNAc(b1-3)Gal(b1-4)GlcNAc(b1-2)Man(a1-6)]Man(b1-4)GlcNAc(b1-4)[Fuc(a1-6)]GlcNAc", "procedure,_shortened": "as §1"}, "[5]": {"molecular_target": "GlcNAc(b1-3)Gal(b1-4)GlcNAc(b1-3)Gal(b1-4)GlcNAc(b1-3)Gal(b1-4)GlcNAc(b1-2)[GlcNAc(b1-3)Gal(b1-4)GlcNAc(b1-3)Gal(b1-4)GlcNAc(b1-3)Gal(b1-4)GlcNAc(b1-6)]Man(a1-6)[GlcNAc(b1-3)Gal(b1-4)GlcNAc(b1-3)Gal(b1-4)GlcNAc(b1-3)Gal(b1-4)GlcNAc(b1-2)Man(a1-3)]Man(b1-4)GlcNAc(b1-4)[Fuc(a1-6)]GlcNAc", "procedure,_shortened": "as §1"}, "[6]": {"molecular_target": "GlcNAc(b1-3)Gal(b1-4)GlcNAc(b1-3)Gal(b1-4)GlcNAc(b1-3)Gal(b1-4)GlcNAc(b1-3)Gal(b1-4)GlcNAc(b1-2)Man(a1-3)[GlcNAc(b1-3)Gal(b1-4)GlcNAc(b1-3)Gal(b1-4)GlcNAc(b1-3)Gal(b1-4)GlcNAc(b1-3)Gal(b1-4)GlcNAc(b1-2)Man(a1-6)]Man(b1-4)GlcNAc(b1-4)GlcNAc", "procedure,_shortened": "as §1"}, "[7]": {"molecular_target": "GlcNAc(b1-3)Gal(b1-4)GlcNAc(b1-3)Gal(b1-4)GlcNAc(b1-3)Gal(b1-4)GlcNAc(b1-3)Gal(b1-4)GlcNAc(b1-2)Man(a1-3)[GlcNAc(b1-3)Gal(b1-4)GlcNAc(b1-3)Gal(b1-4)GlcNAc(b1-3)Gal(b1-4)GlcNAc(b1-3)Gal(b1-4)GlcNAc(b1-2)Man(a1-6)]Man(b1-4)GlcNAc(b1-4)[Fuc(a1-6)]GlcNAc", "procedure,_shortened": "as §1"}, "[8]": {"molecular_target": "GlcNAc(b1-3)Gal(b1-4)GlcNAc(b1-3)Gal(b1-4)GlcNAc(b1-3)Gal(b1-4)GlcNAc(b1-3)Gal(b1-4)GlcNAc(b1-2)[GlcNAc(b1-3)Gal(b1-4)GlcNAc(b1-3)Gal(b1-4)GlcNAc(b1-3)Gal(b1-4)GlcNAc(b1-3)Gal(b1-4)GlcNAc(b1-6)]Man(a1-6)[GlcNAc(b1-3)Gal(b1-4)GlcNAc(b1-3)Gal(b1-4)GlcNAc(b1-3)Gal(b1-4)GlcNAc(b1-3)Gal(b1-4)GlcNAc(b1-2)Man(a1-3)]Man(b1-4)GlcNAc(b1-4)[Fuc(a1-6)]GlcNAc", "procedure,_shortened": "as §1"}, "[9]": {"molecular_target": "GlcNAc(b1-3)Gal(b1-4)GlcNAc(b1-3)Gal(b1-4)GlcNAc(b1-3)GalNAc", "procedure,_shortened": "as §1"}, "[10]": {"molecular_target": "GlcNAc(b1-3)Gal(b1-4)GlcNAc(b1-3)GalNAc", "procedure,_shortened": "as §1"}, "[11]": {"molecular_target": "GlcNAc(b1-3)Gal(b1-4)GlcNAc(b1-3)[GlcNAc(b1-3)Gal(b1-4)GlcNAc(b1-3)]GalNAc", "procedure,_shortened": "as §1"}, "[12]": {"molecular_target": "GlcNAc(b1-3)Gal(b1-4)GlcNAc(b1-6)[Gal(b1-3)]GalNAc", "procedure,_shortened": "as §1"}, "[13]": {"molecular_target": "GlcNAc(b1-3)Gal(b1-4)GlcNAc(b1-6)[GlcNAc(b1-3)Gal(b1-3)]GalNAc", "procedure,_shortened": "as §1"}, "[14]": {"molecular_target": "GlcNAc(b1-3)Gal(b1-4)GlcNAc(b1-6)[GlcNAc(b1-3)]Gal(b1-4)GlcNAc", "procedure,_shortened": "as §1"}, "[15]": {"molecular_target": "GlcNAc(b1-3)GalNAc", "procedure,_shortened": "as §1"}, "[16]": {"molecular_target": "GlcNAc(b1-3)Man", "procedure,_shortened": "as §1"}, "[17]": {"molecular_target": "GlcNAc(b1-3)[GlcNAc(b1-4)][GlcNAc(b1-6)]GlcNAc", "procedure,_shortened": "as §1"}, "[18]": {"molecular_target": "GlcNAc(b1-3)[GlcNAc(b1-6)]Gal(b1-4)GlcNAc", "procedure,_shortened": "as §1"}, "[19]": {"molecular_target": "GlcNAc(b1-3)[GlcNAc(b1-6)]GalNAc", "procedure,_shortened": "as §1"}, "[20]": {"molecular_target": "GlcNAc(b1-4)Gal(b1-4)GlcNAc", "procedure,_shortened": "as §1"}, "[21]": {"molecular_target": "GlcNAc(b1-4)GlcNAc", "procedure,_shortened": "as §1"}, "[22]": {"molecular_target": "GlcNAc(b1-4)GlcNAc(b1-4)GlcNAc", "procedure,_shortened": "as §1"}, "[23]": {"molecular_target": "GlcNAc(b1-4)GlcNAc(b1-4)GlcNAc(b1-4)GlcNAc(b1-4)GlcNAc", "procedure,_shortened": "as §1"}, "[24]": {"molecular_target": "GlcNAc(b1-4)GlcNAc(b1-4)GlcNAc(b1-4)GlcNAc(b1-4)GlcNAc(b1-4)GlcNAc", "procedure,_shortened": "as §1"}, "[25]": {"molecular_target": "GlcNAc(b1-4)[GlcNAc(b1-6)]GalNAc", "procedure,_shortened": "as §1"}, "[26]": {"molecular_target": "GlcNAc(b1-6)Gal(b1-4)GlcNAc", "procedure,_shortened": "as §1"}, "[27]": {"molecular_target": "GlcNAc(b1-6)GalNAc", "procedure,_shortened": "as §1"}, "[28]": {"molecular_target": "GlcNAc6S(b1-3)Gal(b1-4)GlcNAc", "procedure,_shortened": "as §1"}, "[29]": {"molecular_target": "Kdn(a2-3)Gal(b1-3)GalNAc", "procedure,_shortened": "as §1"}, "[30]": {"molecular_target": "Kdn(a2-3)Gal(b1-3)GlcNAc", "procedure,_shortened": "as §1"}, "[31]": {"molecular_target": "Kdn(a2-3)Gal(b1-4)Glc", "procedure,_shortened": "as §1"}, "[32]": {"molecular_target": "Kdn(a2-3)Gal(b1-4)GlcNAc", "procedure,_shortened": "as §1"}, "[33]": {"molecular_target": "Kdn(a2-3)Gal(b1-4)[Fuc(a1-3)]GlcNAc", "procedure,_shortened": "as §1"}, "[34]": {"molecular_target": "Kdn(a2-6)Gal(b1-4)GlcNAc", "procedure,_shortened": "as §1"}, "[35]": {"molecular_target": "Man(a1-2)Man(a1-2)Man(a1-3)Man", "procedure,_shortened": "as §1"}, "[36]": {"molecular_target": "Man(a1-2)Man(a1-2)Man(a1-6)[Man(a1-3)]Man", "procedure,_shortened": "as §1"}, "[37]": {"molecular_target": "Man(a1-2)Man(a1-3)Man", "procedure,_shortened": "as §1"}, "[38]": {"molecular_target": "Man(a1-2)Man(a1-3)[Man(a1-2)Man(a1-6)]Man", "procedure,_shortened": "as §1"}},
  "note": "This is one part of the list.",
  "data": [
    {"binder": "B1", "values": [
      {"measurement": "glycan array binding signal (z-score)", "setting": "[1]", "result": -0.377},
      {"measurement": "glycan array binding signal (z-score)", "setting": "[2]", "result": -0.416},
      {"measurement": "glycan array binding signal (z-score)", "setting": "[3]", "result": -0.414},
      {"measurement": "glycan array binding signal (z-score)", "setting": "[4]", "result": -0.364},
      {"measurement": "glycan array binding signal (z-score)", "setting": "[5]", "result": -0.429},
      {"measurement": "glycan array binding signal (z-score)", "setting": "[6]", "result": -0.38},
      {"measurement": "glycan array binding signal (z-score)", "setting": "[7]", "result": -0.368},
      {"measurement": "glycan array binding signal (z-score)", "setting": "[8]", "result": -0.405},
      {"measurement": "glycan array binding signal (z-score)", "setting": "[9]", "result": -0.405},
      {"measurement": "glycan array binding signal (z-score)", "setting": "[10]", "result": -0.438},
      {"measurement": "glycan array binding signal (z-score)", "setting": "[11]", "result": -0.439},
      {"measurement": "glycan array binding signal (z-score)", "setting": "[12]", "result": -0.415},
      {"measurement": "glycan array binding signal (z-score)", "setting": "[13]", "result": -0.431},
      {"measurement": "glycan array binding signal (z-score)", "setting": "[14]", "result": -0.455},
      {"measurement": "glycan array binding signal (z-score)", "setting": "[15]", "result": -0.426},
      {"measurement": "glycan array binding signal (z-score)", "setting": "[16]", "result": -0.434},
      {"measurement": "glycan array binding signal (z-score)", "setting": "[17]", "result": -0.438},
      {"measurement": "glycan array binding signal (z-score)", "setting": "[18]", "result": -0.443},
      {"measurement": "glycan array binding signal (z-score)", "setting": "[19]", "result": -0.431},
      {"measurement": "glycan array binding signal (z-score)", "setting": "[20]", "result": -0.439},
      {"measurement": "glycan array binding signal (z-score)", "setting": "[21]", "result": -0.415},
      {"measurement": "glycan array binding signal (z-score)", "setting": "[22]", "result": -0.446},
      {"measurement": "glycan array binding signal (z-score)", "setting": "[23]", "result": -0.431},
      {"measurement": "glycan array binding signal (z-score)", "setting": "[24]", "result": -0.451},
      {"measurement": "glycan array binding signal (z-score)", "setting": "[25]", "result": -0.383},
      {"measurement": "glycan array binding signal (z-score)", "setting": "[26]", "result": -0.441},
      {"measurement": "glycan array binding signal (z-score)", "setting": "[27]", "result": 2.94},
      {"measurement": "glycan array binding signal (z-score)", "setting": "[28]", "result": -0.392},
      {"measurement": "glycan array binding signal (z-score)", "setting": "[29]", "result": -0.362},
      {"measurement": "glycan array binding signal (z-score)", "setting": "[30]", "result": -0.442},
      {"measurement": "glycan array binding signal (z-score)", "setting": "[31]", "result": -0.436},
      {"measurement": "glycan array binding signal (z-score)", "setting": "[32]", "result": -0.439},
      {"measurement": "glycan array binding signal (z-score)", "setting": "[33]", "result": -0.422},
      {"measurement": "glycan array binding signal (z-score)", "setting": "[34]", "result": -0.446},
      {"measurement": "glycan array binding signal (z-score)", "setting": "[35]", "result": -0.43},
      {"measurement": "glycan array binding signal (z-score)", "setting": "[36]", "result": -0.448},
      {"measurement": "glycan array binding signal (z-score)", "setting": "[37]", "result": -0.438},
      {"measurement": "glycan array binding signal (z-score)", "setting": "[38]", "result": -0.447}
    ]}
  ]
}
